From PubChem BioAssay AID493208 (National Center for Advancing Translational Sciences (NCATS), 2011)
The campaign covered roughly 44,000 compounds. About 340 (0.77%) were called active. Inconclusive results (about 5%) are left out. Calls follow the shape of the dose curve; as a rule, active = well fitted inhibition curve with a large enough effect; inconclusive = small, poorly fitted or top-dose-only effect; inactive = flat fitted curve, though single readings scatter. The list shows a part of the results.

Assay: Acumen qHTS Assay for Inhibitors of the mTORC1 Signaling Pathway in MEF (Tsc2-/-, p53-/-) Cells: Sytravon;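 also: plate controls were DMSO for no effect and rapamycin for full effect; nearly all actives have a fitted effect of over 50% in size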
Settings: phospho-rpS6 immunofluorescence/PI, 24 h; series mostly up to 38.3 µM; activity change, negative = inhibition: at the top concentration
Summary of the method: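 Immunofluorescence of rpS6 phosphorylation in Tsc2-/-, p53-/- MEFs after 24 h compound exposure, normalized to propidium iodide signal. Activity is expressed as % positive cells, thresholded with 7.5 nM rapamycin.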
In the case of `COc1ccc(-c2cc(C(=O)Nc3cccnc3Cl)no2)cc1OC`, the “activity change, negative = inhibition” value is reported as inactive: 1.62%.
In the case of `COc1ccc(CCC(=O)N2CCc3c([nH]c4ccccc34)C2c2ccc(F)cc2)cc1` (stereo not drawn), the “activity change, negative = inhibition” value is reported as inactive: -10.2%.
In the case of `Cc1nc2cccnc2n1-c1cccc(C(=O)N2CCN(c3ccc(Cl)cc3)CC2)c1`, the “activity change, negative = inhibition” value is reported as inactive: -14.7%.
For `CCC(=O)N1c2ccccc2CC1C(=O)NCc1ccc(OC(C)C)cc1` (stereo not drawn), the “activity change, negative = inhibition” value was inactive: 2.48%.
In the case of `CCN(CCCNC(=O)Cn1ncc2c([nH]c3ccc(C)cc32)c1=O)c1cccc(C)c1`, the “activity change, negative = inhibition” value is reported as inactive: -3.61%.
For `COc1ccc(C2CC(=O)Nc3c2c(C)nn3-c2nncc(-c3ccc(C)cc3)n2)c(OC)c1OC` (stereo not drawn), the “activity change, negative = inhibition” value was inactive: 2.9%.
In the case of `Cc1cccc(CCNC(=O)c2sc3nc4n(c(=O)c3c2C)CCCC4)c1`, the “activity change, negative = inhibition” value is reported as inactive: -2.39%.
With `CCc1ccccc1NC(=O)c1ccc2c(c1)N(Cc1cccc(Cl)c1)C(=O)c1ccccc1S2(=O)=O` the “activity change, negative = inhibition” value was inactive: -8.19%.
For `Cc1csc2nc(-c3cccc(NC(=O)C(C)C)c3)cn12`, the “activity change, negative = inhibition” value was inactive: 0%.
In the case of `CCOc1ccc(-c2nc(SCC(=O)Nc3ccc4c(c3)OCO4)c(-c3ccc(F)cc3)[nH]2)cc1`, the “activity change, negative = inhibition” value is reported as inactive: -31.3%.
For `O=C1c2oc3ccccc3c(=O)c2C(c2ccccc2)N1Cc1ccc2c(c1)OCO2` (stereo not drawn), the “activity change, negative = inhibition” value was inactive: -11.7%.
In the case of `CN1C(=O)c2ccccc2Sc2ccc(NC(=O)c3ccccc3F)cc21`, the “activity change, negative = inhibition” value is reported as inactive: -3.09%.
For `Cc1c(-c2nsc(NC(=O)c3ccccc3)n2)nnn1-c1ccc(C(F)(F)F)c(Cl)c1`, the “activity change, negative = inhibition” value was inactive: -20.8%.
In the case of `CCOC(=O)c1cccc(NC(=O)[C@@H](c2ccccc2)N2Cc3ccccc3C2=O)c1`, the “activity change, negative = inhibition” value is reported as inactive: -11.7%.
For `Cc1cc(C)c(NC(=O)Cc2csc(C)n2)c(Cl)c1`, the “activity change, negative = inhibition” value was inactive: -3.1%.
With `CCN1C(=O)c2ccccc2Sc2ccc(C(=O)NCCCN(CC(C)C)CC(C)C)cc21` the “activity change, negative = inhibition” value was inactive: -3.55%.
In the case of `COC(=O)c1c(-c2cccs2)csc1NC(=O)COc1ccc(C(C)(C)C)cc1`, the “activity change, negative = inhibition” value is reported as inactive: -0.265%.
With `COc1ccccc1CNc1ccc(-c2nc(-c3cccnc3)no2)cc1[N+](=O)[O-]` the “activity change, negative = inhibition” value was inactive: -0.0754%.
With `CCOc1ccccc1NC(=O)c1nn(-c2ccc(C)cc2)c(=O)n(C)c1=O` the “activity change, negative = inhibition” value was inactive: -8.94%.
In the case of `CCOc1ccccc1C1C(C(=O)N2CCCCC2)=C(C)Nc2nc3ccccc3n21` (stereo not drawn), the “activity change, negative = inhibition” value is reported as inactive: -27.7%.
With `COc1ccc(N(C)C(=O)CCn2cnc3onc(-c4ccc(F)cc4)c3c2=O)c(OC)c1` the “activity change, negative = inhibition” value was inactive: -7.33%.
With `COc1cccc(NC(=O)CN2C(=O)c3cccnc3Oc3ccc(Cl)cc32)c1` the “activity change, negative = inhibition” value was inactive: -13.7%.
With `CCc1ccc(NC(=O)c2sc(-n3nc(C)c(Cc4ccc(OC)cc4)c3C)nc2C)cc1` the “activity change, negative = inhibition” value was inactive: -18.5%.
In the case of `CCCCCS(=O)(=O)c1oc(-c2cccs2)nc1S(=O)(=O)c1ccc(C)cc1`, the “activity change, negative = inhibition” value is reported as inactive: 3.65%.
With `CC(C)(C)OC(=O)N1CCC(c2c(C(=O)N3CCC(c4ccccc4)C3)cnn2-c2cccc(Cl)c2)CC1` (stereo not drawn) the “activity change, negative = inhibition” value was inactive: -1.99%.
In the case of `COc1ccc(C2CC(=O)N(CC(=O)Nc3cc(C)ccc3C)c3ccccc3S2)cc1` (stereo not drawn), the “activity change, negative = inhibition” value is reported as inactive: -10.4%.
In the case of `CCCCN(CCCC)C(=O)c1cc2c(=O)n3cccc(C)c3nc2s1`, the “activity change, negative = inhibition” value is reported as inactive: 0.312%.
For `Cc1cccc(OCC(=O)N(Cc2cccs2)c2ccc(Cl)cc2)c1C`, the “activity change, negative = inhibition” value was inactive: -8.76%.
In the case of `Cc1cc2n(n1)C(c1cc(C(C)(C)C)c(O)cc1O)Nc1ccccc1-2` (stereo not drawn), the “activity change, negative = inhibition” value is reported as inactive: -3.56%.
With `CCOc1ccc(C(=O)N2CCC(c3nc4ccccc4o3)CC2)cc1` the “activity change, negative = inhibition” value was inactive: -5.36%.
With `CSc1cccc(NC(=O)CN2C(=O)COc3ccc(Cl)cc32)c1` the “activity change, negative = inhibition” value was inactive: -1.9%.
For `CCOc1ccc(OCC)c(NC(=O)c2nnn(CC(=O)Nc3ccc(C)cc3C)c2N)c1`, the “activity change, negative = inhibition” value was inactive: 2.5%.
With `CCCCOc1ccc(C(=O)Nc2cccc(-c3nc4cccnc4s3)c2)cc1` the “activity change, negative = inhibition” value was inactive: 3.32%.
With `COc1ccc(NC(=O)COc2ccc(-c3nn(C)c(=O)c4ccccc34)cc2)cc1` the “activity change, negative = inhibition” value was inactive: -6.79%.
With `COc1ccccc1CNC(=O)C(NS(=O)(=O)c1cccs1)C(C)C` (stereo not drawn) the “activity change, negative = inhibition” value was inactive: -8.93%.
In the case of `Cc1ccc(-c2nc3sc(CCNC(=O)c4ccc(Br)o4)c(C)n3n2)cc1`, the “activity change, negative = inhibition” value is reported as inactive: -1.54%.
With `CCCCc1ccc(NC(=O)c2cc3c(=O)n4ccccc4nc3s2)cc1` the “activity change, negative = inhibition” value was inactive: 2.69%.
In the case of `COc1ccccc1-c1nnc(SCC(=O)c2ccc(Cl)cc2)n1-c1ccccc1`, the “activity change, negative = inhibition” value is reported as inactive: -7.46%.
In the case of `CCOc1ccc(NC(=O)CSc2nc3c(oc4ccccc43)c(=O)n2-c2ccccc2C)cc1`, the “activity change, negative = inhibition” value is reported as inactive: -9.43%.
With `CC(NC(=O)c1ccc2c(c1)CCN2S(=O)(=O)c1ccc(Cl)cc1)c1ccccc1` (stereo not drawn) the “activity change, negative = inhibition” value was inactive: -5.36%.
For `Cc1ccc(NC(=O)NCCc2c(C)nn(C)c2C)cc1Cl`, the “activity change, negative = inhibition” value was inactive: 4.78%.
With `CCn1ccc2cc(S(=O)(=O)N3CCCN(C(=O)Nc4cccc(Cl)c4)CC3)ccc21` the “activity change, negative = inhibition” value was inactive: -13.2%.
In the case of `COc1ccc(C2=NN(CC(=O)NCCc3ccc(OC)c(OC)c3)C(=O)CC2)cc1`, the “activity change, negative = inhibition” value is reported as inactive: -10.9%.
With `COc1ccc(N(C)C(=O)c2cn(C3CCCCC3)c(=O)c3c2c2ccccc2n3C)cc1` the “activity change, negative = inhibition” value was inactive: -29.1%.
With `CCOC(=O)c1c(S(=O)(=O)N2CCCC(C(=O)Nc3cccc(Cl)c3)C2)c(C)n(C)c1C` (stereo not drawn) the “activity change, negative = inhibition” value was inactive: -4.49%.
With `CCCCN(CC)CCCNC(=O)CCN1N=C(c2ccc(OC)cc2)CCC1=O` the “activity change, negative = inhibition” value was inactive: 1.89%.
For `COc1ccccc1NC(=O)C(=O)NCCc1csc(-c2cccc(F)c2)n1`, the “activity change, negative = inhibition” value was inactive: -1.97%.
For `COc1ccccc1NC(=O)C1=C(C)Nc2ncnn2C1c1ccccc1C(=O)O` (stereo not drawn), the “activity change, negative = inhibition” value was inactive: -1.66%.
